Two compounds from patent US20240248079A1, “IMPROVED UnaG FLUORESCENT PROTEIN FOR BiFC ASSAYS” (THE REGENTS OF THE UNIVERSITY OF CALIFORNIA, priority 2021, published 2024) can be followed below.

Test [1] concerns the target T1, PPI between MYCN and AURKA (Homo sapiens, UniProt O14965).
T1 construct: expressed in transfected cells
T1 sequence (O14965 122-403): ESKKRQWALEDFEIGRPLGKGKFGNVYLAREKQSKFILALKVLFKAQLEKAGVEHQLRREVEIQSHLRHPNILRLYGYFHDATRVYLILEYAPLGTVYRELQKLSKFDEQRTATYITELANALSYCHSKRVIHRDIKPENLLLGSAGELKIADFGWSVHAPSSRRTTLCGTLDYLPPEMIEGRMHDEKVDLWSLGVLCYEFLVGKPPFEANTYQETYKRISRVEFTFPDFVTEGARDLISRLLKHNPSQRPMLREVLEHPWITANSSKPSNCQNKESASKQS
Kind of test: SURF reporter of MYCN (1-137) and AURKA (122-403): verification, high throughput screening, time course. Type of test: cell-based. Conditions: time course assay in living cells. Here is the method:
To identify clinical drugs that can inhibit the interaction between YAP1 and TEAD, a SURF-based reporter for imaging this PPI was developed. […] Next, a high throughput screening of 1622 FDA-approved drugs (1 μM final concentration) was carried out. […] Here, ten fields-of-view (FOV) were imaged per well (i.e. per drug). The images were analyzed using ImageJ in an automated batch processing to calculate: 1) the SURF fluorescence per one FOV; 2) the co-expressed mCherry fluorescence per FOV; 3) normalized SURF fluorescence by mCherry. Then, we calculated: 1) the fold change of normalized SURF fluorescence (averaged by 10 FOV) for each drug (vs buffer); and 2) the p-value based on 10 FOV for each drug (vs buffer).
To identify clinical drugs that can inhibit the interaction between MYCN and AURKA, a SURF-based reporter was developed for imaging this PPI (FIG. 5).
To examine how fast the identified drugs inhibit the PPI, the top five drugs were selected for a time course assay.

Test [2] deals with KRas G12C mutant and Raf1 interaction (Homo sapiens, UniProt P01116, G12C). Kind of test: PPI reporter imaging of KRas G12C mutant and Raf1 interaction.
For the next test, the target named is T2, wild type KRas with Raf1 (Homo sapiens, UniProt P01116).
T2 construct: full length KRas and amino acids 50-131 of Raf1; expressed in transfected cells
The test can be described thus: SURF imaging of wild type KRas and Raf1 interaction. It counts as cell-based.

Sequence of KRas G12C mutant and Raf1 interaction (P01116 1-186 isoform P01116-2 G12C limits assumed): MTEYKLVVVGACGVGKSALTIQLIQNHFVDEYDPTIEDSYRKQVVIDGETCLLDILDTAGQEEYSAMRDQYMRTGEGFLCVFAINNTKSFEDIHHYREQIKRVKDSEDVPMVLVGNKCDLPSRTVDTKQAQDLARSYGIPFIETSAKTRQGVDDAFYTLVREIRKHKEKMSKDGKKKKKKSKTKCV
T2 sequence (P01116 1-186 isoform P01116-2 limits assumed): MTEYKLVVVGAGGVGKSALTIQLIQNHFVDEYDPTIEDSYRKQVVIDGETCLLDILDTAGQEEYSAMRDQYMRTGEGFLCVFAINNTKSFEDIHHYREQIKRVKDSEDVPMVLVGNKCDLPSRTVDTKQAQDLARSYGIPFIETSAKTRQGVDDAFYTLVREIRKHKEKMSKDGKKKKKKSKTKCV

In the case of `CC(=O)O[C@H]1[C@H]2O[C@]23[C@@H]2CC[C@]4(O)C[C@@H](O)CC[C@]4(C)[C@H]2CC[C@]3(C)[C@H]1c1ccc(=O)oc1` [cinobufotalin], the “OFF time of PPI inhibition (T1/2 off, half-to-maximum time)” value in test [1] was around 2 h.

With `C=CC(=O)N1CC(N2CCN(C(=O)CNc3cc(C4(C)CC4)c(Cl)cc3O)CC2)C1` [ARS-853], the “SURF fluorescence upon addition of inhibitor” value is recorded as “fluorescence loss upon addition of ARS-853” in test [2] and “did not change” at wild type KRas with Raf1.
